Experimental data from US9433687B2, “Anti-Notch3 antibodies and antibody-drug conjugates” (Pfizer Inc., priority 2012, dated 2016).

Assays:
[1] = test system: 37622A1 NSCLC patient-derived xenografts; experiment: 37622A1 patient derived NSCLC xenograft model; type: in vivo, mouse; conditions: 10 mg/kg iv Q4dx4
Description: The effects of anti-Notch3 ADCs were examined in immunodeficient mice on the in vivo growth of human tumor xenografts that were established from fragments of freshly resected 37622A1 NSCLC tumors obtained in accordance with appropriate consent procedures (Asterand). The 37622A1 NSCLC patient-derived xenografts were subcutaneously passaged in vivo as fragments from animal to animal in nude (Nu/Nu) female mice. When the tumors reached a volume of 150 to 300 mm^3, they were staged to ensure uniformity of the tumor size among various treatment groups. The 37622A1 NSCLC patient-derived xenografts model was dosed intravenously four times every four days (Q4d×4) with PBS vehicle, humanized anti-Notch3 ADCs, control huNeg-8.8 ADCs and cisplatin at the doses provided in Table 19.

[2] = test system: MDA-MB-468 breast xenografts; experiment: MDA-MB-468 breast xenograft model; type: in vivo, mouse
Procedure: Similar in vivo experiments were performed with the MDA-MB-468 breast cancer cell line as described above. MDA-MB-468 cells are classified as a triple-negative breast cancer (TNBC) basal-like subtype since they lack expression of the estrogen receptor, progesterone receptor and human epidermal growth factor receptor 2 (HER2) (Lehmann, B D, et al, J Clin Invest. 2011; 121(7):2750-2767). To generate xenografts, female SCID Hairless Outbred (SHO) mice were orthotopically implanted with 10×10^6 MDA-MB-468 cells containing 50% Matrigel (BD Biosciences) in the mammary fat pad. […] FIGS. 13A and 13B show graphs of the data from Table 23 of anti-Notch3 ADCs with vc0101 linker-payloads compared to control huNeg-8.8 ADCs and PBS vehicle. FIGS. 14A and 14B show graphs of the data from Table 24 of the anti-Notch3 ADCs with vc6780 linker-payloads compared to control huNeg-8.8 ADC and PBS vehicle.
The MDA-MB-468 breast cancer model was also dosed intravenously Q4d×4 with PBS vehicle, rat-human chimeric anti-Notch3 ADCs and control huNeg-8.8 ADCs, at a dose of 5 mg/kg as provided in FIGS. 16B and 16C.

B1: hu28-vc6780 (conjugate)
heavy: EVQLVESGGGLVQPGGSLRLSCAASGFTFRDYGMTWVRQAPGKGLEWVAYISSGSNYIYYAEAVKGRFTISRDNAKNSLYLQMNSLRAEDTAVYYCARRGPFVLDAWGQGTLVTVSS[letters of human IgG1 constant region omitted]
light: DIQMTQSPSSLSASVGDRVTITCKASQSINRYLHWYQQKPGKAPKLLIYNANGLQTGVPSRFSGSGSGTDFTLTISSLQPEDFATYYCLQHNTWPDTFGGGTKVEIKRTVAAPSVFIFPPSDEQLKSGTASVVCLLNNFYPREAKVQWKVDNALQSGNSQESVTEQDSKDSTYSLSSTLTLSKADYEKHKVYACEVTHQGLSSPVTKSFNRGEC
- tumor volume ([1]; Day 4): 176 mm^3
- tumor volume ([1]; Day 7): 176 mm^3
- tumor volume ([1]; Day 11): 122 mm^3
- tumor volume ([1]; Day 14): 95 mm^3
- tumor volume ([1]; Day 18): 65 mm^3
- tumor volume ([1]; Day 21): 56 mm^3
- tumor volume ([1]; Day 25): 51 mm^3
- tumor volume ([1]; Day 28): 51 mm^3
- tumor volume ([1]; Day 32): 72 mm^3
- tumor volume ([1]; Day 35): 92 mm^3
- tumor volume ([1]; Day 39): 120 mm^3
- tumor volume ([1]; Day 42): 151 mm^3
- tumor volume ([1]; Day 46): 172 mm^3
- tumor volume ([1]; Day 49): 248 mm^3
- tumor volume ([1]; Day 53): 339 mm^3
- tumor volume ([1]; Day 56): 376 mm^3
- tumor volume ([1]; Day 60): 503 mm^3
- tumor volume ([1]; Day 63): 604 mm^3
- tumor volume ([1]; Day 67): 888 mm^3
- tumor volume ([1]; Day 70): 773 mm^3
- tumor volume ([1]; Day 74): 881 mm^3
- tumor volume ([1]; Day 77): 1029 mm^3
- tumor volume ([1]; Day -1): 182 mm^3
- tumor volume (mm^3 ± SEM) ([2]; Table 24, 1 mg/kg i.v. Q4d×4, DAY 4): 462 mm^3
- tumor volume (mm^3 ± SEM) ([2]; Table 24, 1 mg/kg i.v. Q4d×4, DAY 7): 452 mm^3
- tumor volume (mm^3 ± SEM) ([2]; Table 24, 1 mg/kg i.v. Q4d×4, DAY 11): 512 mm^3
- tumor volume (mm^3 ± SEM) ([2]; Table 24, 1 mg/kg i.v. Q4d×4, DAY 14): 507 mm^3
- tumor volume (mm^3 ± SEM) ([2]; Table 24, 1 mg/kg i.v. Q4d×4, DAY 19): 538 mm^3
- tumor volume (mm^3 ± SEM) ([2]; Table 24, 1 mg/kg i.v. Q4d×4, DAY 22): 551 mm^3
- tumor volume (mm^3 ± SEM) ([2]; Table 24, 1 mg/kg i.v. Q4d×4, DAY 25): 575 mm^3
- tumor volume (mm^3 ± SEM) ([2]; Table 24, 1 mg/kg i.v. Q4d×4, DAY 28): 654 mm^3
- tumor volume (mm^3 ± SEM) ([2]; Table 24, 1 mg/kg i.v. Q4d×4, DAY 32): 653 mm^3
- tumor volume (mm^3 ± SEM) ([2]; Table 24, 1 mg/kg i.v. Q4d×4, DAY 35): 734 mm^3
- tumor volume (mm^3 ± SEM) ([2]; Table 24, 1 mg/kg i.v. Q4d×4, DAY 40): 761 mm^3
- tumor volume (mm^3 ± SEM) ([2]; Table 24, 1 mg/kg i.v. Q4d×4, DAY 43): 816 mm^3
- tumor volume (mm^3 ± SEM) ([2]; Table 24, 1 mg/kg i.v. Q4d×4, DAY 46): 859 mm^3
- tumor volume (mm^3 ± SEM) ([2]; Table 24, 1 mg/kg i.v. Q4d×4, DAY 49): 948 mm^3
- tumor volume (mm^3 ± SEM) ([2]; Table 24, 1 mg/kg i.v. Q4d×4, DAY 53): 1008 mm^3
- tumor volume (mm^3 ± SEM) ([2]; Table 24, 3 mg/kg i.v. Q4d×4, DAY 4): 394 mm^3
- tumor volume (mm^3 ± SEM) ([2]; Table 24, 3 mg/kg i.v. Q4d×4, DAY 7): 399 mm^3
- tumor volume (mm^3 ± SEM) ([2]; Table 24, 3 mg/kg i.v. Q4d×4, DAY 11): 380 mm^3
- tumor volume (mm^3 ± SEM) ([2]; Table 24, 3 mg/kg i.v. Q4d×4, DAY 14): 401 mm^3
- tumor volume (mm^3 ± SEM) ([2]; Table 24, 3 mg/kg i.v. Q4d×4, DAY 19): 438 mm^3
- tumor volume (mm^3 ± SEM) ([2]; Table 24, 3 mg/kg i.v. Q4d×4, DAY 22): 414 mm^3
- tumor volume (mm^3 ± SEM) ([2]; Table 24, 3 mg/kg i.v. Q4d×4, DAY 25): 491 mm^3
- tumor volume (mm^3 ± SEM) ([2]; Table 24, 3 mg/kg i.v. Q4d×4, DAY 28): 497 mm^3
- tumor volume (mm^3 ± SEM) ([2]; Table 24, 3 mg/kg i.v. Q4d×4, DAY 32): 524 mm^3
- tumor volume (mm^3 ± SEM) ([2]; Table 24, 10 mg/kg i.v. Q4d×4, DAY 4): 395 mm^3
- tumor volume (mm^3 ± SEM) ([2]; Table 24, 10 mg/kg i.v. Q4d×4, DAY 7): 350 mm^3
- tumor volume (mm^3 ± SEM) ([2]; Table 24, 10 mg/kg i.v. Q4d×4, DAY 11): 248 mm^3
- tumor volume (mm^3 ± SEM) ([2]; Table 24, 10 mg/kg i.v. Q4d×4, DAY 14): 154 mm^3
- tumor volume (mm^3 ± SEM) ([2]; Table 24, 10 mg/kg i.v. Q4d×4, DAY 19): 65 mm^3
- tumor volume (mm^3 ± SEM) ([2]; Table 24, 10 mg/kg i.v. Q4d×4, DAY 22): 25 mm^3
- tumor volume (mm^3 ± SEM) ([2]; Table 24, 10 mg/kg i.v. Q4d×4, DAY 25): 26 mm^3
- tumor volume (mm^3 ± SEM) ([2]; Table 24, 10 mg/kg i.v. Q4d×4, DAY 28): 15 mm^3
- tumor volume (mm^3 ± SEM) ([2]; Table 24, 10 mg/kg i.v. Q4d×4, DAY 32): 0 mm^3
- tumor volume (mm^3 ± SEM) ([2]; Table 24, 10 mg/kg i.v. Q4d×4, DAY 35): 0 mm^3
- tumor volume (mm^3 ± SEM) ([2]; Table 24, 10 mg/kg i.v. Q4d×4, DAY 40): 0 mm^3
- tumor volume (mm^3 ± SEM) ([2]; Table 24, 10 mg/kg i.v. Q4d×4, DAY 43): 0 mm^3
- tumor volume (mm^3 ± SEM) ([2]; Table 24, 10 mg/kg i.v. Q4d×4, DAY 46): 0 mm^3
- tumor volume (mm^3 ± SEM) ([2]; Table 24, 10 mg/kg i.v. Q4d×4, DAY 49): 0 mm^3
- tumor volume (mm^3 ± SEM) ([2]; Table 24, 10 mg/kg i.v. Q4d×4, DAY 53): 0 mm^3
- tumor volume (mm^3 ± SEM) ([2]; Table 24, 10 mg/kg i.v. Q4d×4, DAY 56): 0 mm^3
- tumor volume (mm^3 ± SEM) ([2]; Table 24, 10 mg/kg i.v. Q4d×4, DAY 60): 0 mm^3
- tumor volume (mm^3 ± SEM) ([2]; Table 24, 10 mg/kg i.v. Q4d×4, DAY 63): 0 mm^3
- tumor volume (mm^3 ± SEM) ([2]; Table 24, 10 mg/kg i.v. Q4d×4, DAY 67): 0 mm^3
